Test results taken from paper PMC5596558.
Where two headings read alike, the source gives them in different places. No constants are given. Whether binding was seen depends on the method and setting. Binding seen in cells or lysates may run through a third protein. Some results given as binding are weak or reduced against the parent protein; the word gives no strength. For some assays here: Tags and fused reporters may be left off the sequences shown. Values belong to the molecule of their own block, whether it stands above or below them.

Amino acid sequences for entries named in this document (tags omitted). A change or cut given only in a name is not applied to a line headed by its entry. Residues count along the entry.
UniProt Q676U5: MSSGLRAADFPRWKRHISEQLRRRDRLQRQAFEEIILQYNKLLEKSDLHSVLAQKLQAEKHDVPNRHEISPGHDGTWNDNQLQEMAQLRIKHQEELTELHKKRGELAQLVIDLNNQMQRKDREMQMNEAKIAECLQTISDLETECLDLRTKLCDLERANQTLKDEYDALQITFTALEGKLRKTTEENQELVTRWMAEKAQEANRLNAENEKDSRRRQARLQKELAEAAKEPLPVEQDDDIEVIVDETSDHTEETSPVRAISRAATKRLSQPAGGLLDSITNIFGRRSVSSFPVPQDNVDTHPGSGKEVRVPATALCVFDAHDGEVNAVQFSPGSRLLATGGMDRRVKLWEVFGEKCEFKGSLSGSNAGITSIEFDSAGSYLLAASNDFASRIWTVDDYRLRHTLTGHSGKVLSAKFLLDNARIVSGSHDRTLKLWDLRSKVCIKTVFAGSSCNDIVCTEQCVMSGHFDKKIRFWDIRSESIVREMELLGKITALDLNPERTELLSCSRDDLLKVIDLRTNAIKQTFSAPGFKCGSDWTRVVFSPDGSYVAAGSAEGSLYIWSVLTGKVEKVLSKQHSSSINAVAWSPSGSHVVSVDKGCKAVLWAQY
GFP-ATG16L1(1–320): residues 1-320 of Q676U5
UniProt Q96NL1: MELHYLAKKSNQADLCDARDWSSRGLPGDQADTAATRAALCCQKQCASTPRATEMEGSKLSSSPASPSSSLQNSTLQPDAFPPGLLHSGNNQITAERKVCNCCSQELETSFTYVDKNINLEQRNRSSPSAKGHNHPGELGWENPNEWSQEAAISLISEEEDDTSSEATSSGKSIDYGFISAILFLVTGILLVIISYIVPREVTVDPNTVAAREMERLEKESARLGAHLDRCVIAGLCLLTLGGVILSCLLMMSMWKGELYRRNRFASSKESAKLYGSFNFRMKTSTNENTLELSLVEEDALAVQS

Legend:
GFP-ATG16L1(1–320) = GFP-ATG16L1(1–320) (UniProt Q676U5); assay: co-IP; HeLa cells co-transfected for 24 h; total cell extracts (1 mg) with anti-GFP or isotype control IgG and protein G sepharose, 4 h at 4 °C; five washes (50 mM Tris pH 8.0, 150 mM NaCl, 0.4% NP-40, 5 mM MgCl2); western blot
GFP-ATG9A [1] = target: T1, GFP-ATG9A (UniProt Q7Z3C6); assay: as above
T1 sequence: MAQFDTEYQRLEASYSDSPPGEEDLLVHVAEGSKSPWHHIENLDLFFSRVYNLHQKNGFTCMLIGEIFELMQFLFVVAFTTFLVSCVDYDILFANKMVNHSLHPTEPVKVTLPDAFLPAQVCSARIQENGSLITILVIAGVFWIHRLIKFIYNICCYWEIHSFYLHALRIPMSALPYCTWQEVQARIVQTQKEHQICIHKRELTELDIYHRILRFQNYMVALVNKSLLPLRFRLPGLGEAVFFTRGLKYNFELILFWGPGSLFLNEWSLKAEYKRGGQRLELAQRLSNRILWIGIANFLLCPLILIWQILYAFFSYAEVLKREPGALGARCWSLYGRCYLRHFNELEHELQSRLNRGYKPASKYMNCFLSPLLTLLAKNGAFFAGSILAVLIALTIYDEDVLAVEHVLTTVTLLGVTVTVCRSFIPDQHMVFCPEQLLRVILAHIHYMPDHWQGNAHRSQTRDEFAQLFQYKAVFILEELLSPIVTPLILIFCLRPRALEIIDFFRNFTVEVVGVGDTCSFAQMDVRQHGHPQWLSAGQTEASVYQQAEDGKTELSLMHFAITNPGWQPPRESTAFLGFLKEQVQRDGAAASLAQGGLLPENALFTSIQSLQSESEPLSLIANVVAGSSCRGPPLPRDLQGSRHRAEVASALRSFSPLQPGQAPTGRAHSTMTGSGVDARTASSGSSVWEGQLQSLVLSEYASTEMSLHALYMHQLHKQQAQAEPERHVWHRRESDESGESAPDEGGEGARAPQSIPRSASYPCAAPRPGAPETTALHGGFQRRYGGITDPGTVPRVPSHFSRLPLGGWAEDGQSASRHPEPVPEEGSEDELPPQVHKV

GFP-ATG16L1 = GFP-ATG16L1 (UniProt Q676U5); assay: as above
GFP-TMEM74 = GFP-TMEM74 (UniProt Q96NL1); assay: as above
GFP-ATG9A△(1–495) = target: T2, GFP-ATG9A△(1–495) (UniProt Q7Z3C6); assay: as above
T2 sequence: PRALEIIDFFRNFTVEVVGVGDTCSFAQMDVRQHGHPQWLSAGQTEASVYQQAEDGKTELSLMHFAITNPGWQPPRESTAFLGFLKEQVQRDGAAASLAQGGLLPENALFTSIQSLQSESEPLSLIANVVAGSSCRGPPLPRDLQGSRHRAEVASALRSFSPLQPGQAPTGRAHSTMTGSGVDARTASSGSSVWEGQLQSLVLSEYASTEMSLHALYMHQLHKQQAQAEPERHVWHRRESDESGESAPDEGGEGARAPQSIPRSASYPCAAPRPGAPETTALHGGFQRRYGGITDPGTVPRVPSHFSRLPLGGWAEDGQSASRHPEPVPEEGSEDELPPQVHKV

GFP-ATG9A(1–495) = target: T3, GFP-ATG9A(1–495) (UniProt Q7Z3C6); assay: as above
T3 sequence: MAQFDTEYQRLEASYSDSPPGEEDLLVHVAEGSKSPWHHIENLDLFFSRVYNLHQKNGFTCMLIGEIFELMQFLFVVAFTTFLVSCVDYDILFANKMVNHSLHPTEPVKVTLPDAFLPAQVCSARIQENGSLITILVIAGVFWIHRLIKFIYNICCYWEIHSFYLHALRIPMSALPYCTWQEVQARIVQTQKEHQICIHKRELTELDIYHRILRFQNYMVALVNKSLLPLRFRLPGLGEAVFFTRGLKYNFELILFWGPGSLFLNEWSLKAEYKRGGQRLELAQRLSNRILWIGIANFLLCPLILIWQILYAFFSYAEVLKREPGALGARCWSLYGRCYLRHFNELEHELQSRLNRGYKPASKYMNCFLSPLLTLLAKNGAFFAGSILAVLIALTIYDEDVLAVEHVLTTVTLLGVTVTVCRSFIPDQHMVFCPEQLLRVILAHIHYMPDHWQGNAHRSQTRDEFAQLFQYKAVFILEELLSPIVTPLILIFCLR

GFP-ATG9A△(153–289) = target: T4, GFP-ATG9A△(153–289) (UniProt Q7Z3C6); assay: as above
T4 sequence: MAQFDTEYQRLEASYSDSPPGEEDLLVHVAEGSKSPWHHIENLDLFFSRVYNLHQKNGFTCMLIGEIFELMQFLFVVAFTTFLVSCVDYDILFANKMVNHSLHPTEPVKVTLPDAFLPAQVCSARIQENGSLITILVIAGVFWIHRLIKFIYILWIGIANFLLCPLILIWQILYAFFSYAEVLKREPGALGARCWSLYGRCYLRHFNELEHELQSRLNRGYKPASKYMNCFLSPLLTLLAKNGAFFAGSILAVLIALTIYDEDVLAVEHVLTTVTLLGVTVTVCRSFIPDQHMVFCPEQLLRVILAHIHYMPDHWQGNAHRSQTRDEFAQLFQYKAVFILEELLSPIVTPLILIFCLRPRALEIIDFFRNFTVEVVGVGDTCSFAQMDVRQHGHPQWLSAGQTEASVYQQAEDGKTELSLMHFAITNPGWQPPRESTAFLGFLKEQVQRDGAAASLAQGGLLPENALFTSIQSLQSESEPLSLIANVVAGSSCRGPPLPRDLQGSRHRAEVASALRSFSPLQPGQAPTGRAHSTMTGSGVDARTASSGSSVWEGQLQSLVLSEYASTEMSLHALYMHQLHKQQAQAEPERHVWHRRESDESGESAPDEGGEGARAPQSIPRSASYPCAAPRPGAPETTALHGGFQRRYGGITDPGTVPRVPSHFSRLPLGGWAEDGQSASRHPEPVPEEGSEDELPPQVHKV

[2] = target: GST-tagged full-length TMEM74 fusion protein (UniProt Q96NL1); assay: pull-down; GST or GST-TMEM74 on glutathione-Sepharose 4B beads with lysates of transfected HeLa cells, 4 h at 4 °C; five washes; western blot; only the target purified
GFP-ATG9A [3] = target: T1, GFP-ATG9A; assay: co-IP; HeLa cells treated with siTMEM74-1, siTMEM74-2 or siControl for 24 h, then transfected with the GFP-tagged bait for 24 h and treated with EBSS for at least 8 h; IP with anti-GFP or non-specific control IgG; endogenous prey by western blot
[4] = target: GST-tagged full-length TMEM74 fusion protein (UniProt Q96NL1); assay: pull-down; GST or GST-TMEM74 on glutathione-Sepharose 4B beads with lysates of transfected HeLa cells, 4 h at 4 °C; five washes; western blot; only the target purified; remark: listed apart in the source

binding (GFP-ATG16L1(1–320)): binds | binding (GFP-ATG9A [1]): binds | binding (GFP-ATG16L1): binds
Molecule: endogenous TMEM74 (from UniProt Q96NL1 1-305)

binding (GFP-TMEM74): binds
Molecule: endogenous ATG16L1 (from UniProt Q676U5 1-607)

binding (GFP-ATG9A△(1–495)): no binding | binding (GFP-ATG16L1(1–320)): binds | binding (GFP-ATG16L1(1–320); record 2): no binding | binding (GFP-ATG9A [1]): binds | binding (GFP-ATG16L1): binds | binding (GFP-ATG9A(1–495)): binds | binding (GFP-ATG9A△(153–289)): no binding
Molecule: mCherry-TMEM74 (from UniProt Q96NL1 1-305)

binding [2]: binds
Molecule: GFP-ATG16L1 (from UniProt Q676U5 1-607)

binding (GFP-ATG9A [3]): binds
B1: endogenous WIPI1 (protein, UniProt Q5MNZ9 1-446)
chain: MEAEAADAPPGGVESALSCFSFNQDCTSLATGTKAGYKLFSLSSVEQLDQVHGSNEIPDVYIVERLFSSSLVVVVSHTKPRQMNVYHFKKGTEICNYSYSSNILSIRLNRQRLLVCLEESIYIHNIKDMKLLKTLLDIPANPTGLCALSINHSNSYLAYPGSLTSGEIVLYDGNSLKTVCTIAAHEGTLAAITFNASGSKLASASEKGTVIRVFSVPDGQKLYEFRRGMKRYVTISSLVFSMDSQFLCASSNTETVHIFKLEQVTNSRPEEPSTWSGYMGKMFMAATNYLPTQVSDMMHQDRAFATARLNFSGQRNICTLSTIQKLPRLLVASSSGHLYMYNLDPQDGGECVLIKTHSLLGSGTTEENKENDLRPSLPQSYAATVARPSASSASTVPGYSEDGGALRGEVIPEHEFATGPVCLDDENEFPPIILCRGNQKGKTKQS

binding [4]: binds
B2: GFP-ATG9A (protein, UniProt Q7Z3C6 1-839)
chain: T1 sequence
